# From the RNAGym collection of RNA variant scans (doi:10.7554/elife.90254)
# The source gives no read counts; variants with many changes may rest on few reads.
# B1: LINE1-mini (parent)
# chain: GGCAGAGCUCAACACAGCGUGGCAAAGUGGCUGUGGCUAGACUGCC
# Variants of: B1
# Test: self-cleavage, relative activity (ratio to wild type); higher = more cleavage; in vitro, sequencing; the parent is a self-cleaving ribozyme
row,Variant,self-cleavage
1,GACAGAGCCCAACACAGCGUGGCAAAGUGGCUGUGGCUAGAUUGCC,0.05
2,GACAGAGCGCAACGCAGCGCAGCAAAGUGGCUGUGGCUAGACUGCC,0.39
3,GACAGAGCUCAACACAGCGUGCCAAAGUGGAUGUGGCUAGACUGCC,0.29
4,GACAGAGCUCAACACAGCGUGUCAAAGUGGCUGUGGCAAGACUGCC,0.22
5,GACAGAGCUCAACACAGCGUGGCAAAUUGUAUGUGGCUAGACUGCC,1.16
6,GACAGAGCUCAACACAGCGUGGCAAAGAUGCUGUGGCUAGACUGCC,0.3
7,GACACAGCUCAACACAGCGGGGCGAAGUGGCAGUGGCUAGACUGCC,0.06
8,GACACAGCUCAACACAGAGUGGCAAUGUGACUGUGGCUGGACUGCC,0.05
9,GACAGAGCUCAACACAGCGUGGCAAAGUGGCUUUGACUAGACUGCC,0.1
10,GCCCGAGAUUAACACAGCGUGGCAAAGUGGCUGUGGCUAGACGGCC,0
11,GACAGAGCUCAACACAGCGUGCUAAAGGGGCUGUGGCUAGACUGGC,0.17
12,GACAGAUCUCAACAUAGCGUAGCAAAGUGGCUGUGGCUAGACUGCU,0.1
13,GACAGAGCUCAACACAGCCUGGCAAAGUGGCUGUUGCUGGACUGCC,0.23
14,GACAGAGCUCAACACAGCGCGGCAAUGCGGCUGUGGCUAGACUGCC,0.26
15,GACAUAGCUCAACACAGCGUGGAGAAGUGGCCGUGGCUAGACUGCC,0.09
16,GACAGAGCGCAACACAGCGUGGCAGAGUAGCUGUGGCUAGACUUCC,0.06
17,GACAGAUCUCAACACAGAGUGGCAAAGUUGCUGUGGCUAGACUGCC,0.13
18,GACAGAGCUCAACACAGCGUGCCAAAGUGGCUGUCGCUAGACCGCC,0.09
19,GCCGGAGCUAAACACAGCGUGGCAAAGUGGCUGUGGCUACACCGCC,0.01
20,GACAGAGCUCAACACAGCUUGGCAAAGUGGCAGUGGCUAGACUGCC,0.08
21,GACACAGCUCAAUACAGCGUGGCGAAGUGGCUGUGGUUAGACUGCC,0.06
22,GACAGAGCUCAACACAGCGGGGCAAAGUGGCUGUGACUAGAUUGCC,0.49
23,GACAGAGCUCAACACAGCGUCGCAAAGUCGCUGUGGCUAGACUGCC,0.36

row,Variant,self-cleavage
1,GACAGACCUCAACAUAGCGUGGCAAAAUGGCUGUGGCUAGACUGCC,0.39
2,GACAUAGCUCAACACAGCGUGGCAAAGUGGCUGUGGCUAGACUGCU,0.26
3,GACAGAUCUCAAAACAGCGUGUCAAAGUGGCUGUGGCUAGACUGCC,0.05
4,GACAGAUCUCAUCACCGCGUGGCACAGUGGCGGUGGCUAGACUGCC,0.04
5,GACAGAGCUCAACACAGCGUGACAGAGUGGCUGUGGCUAGACUCCC,0.7
6,GACAGAGCUCAACACAGCGUGGCAAAGUGGCUAUGGCUAGCCUGCC,0.09
7,GCCCGAGCUCAACACAGCGUGGCCAAGUGGCUGUGGCUAGAAUGCC,0.01
8,GACAGAGCUCAACACAGCGUUGCAAAGUGGCUGUGGCUAUACUGCC,0.12
9,GACAGAGCUCAACACAGCGUGGCAAAGUGUCUGUGGCUAGAAUGCC,0.21
10,GACAUAGAUCAACACAGCGUGGCAAAGUGGCUGUGGCUAGACUCCC,0.58
11,GCCGGAGCUGAACACACCGUGGCAAAGUGGCUGUGGAUAGACUGCC,0.01
12,GACAGAGCUCAACACAGCGUGGCAAAUUGGCUGUCGCUGGACAGCC,0.01
13,GACAGAGCUCAACACAGCGUAGCCAAGUUGCUGUGGGUAGACUGCC,1.21
14,GACAGAGCUCAACACAGCGUGUAUAAGUGGCUGUGGCUCGACUGCC,0.16
15,GACAGACCUCCACACAGCGUGGCAAAGUGGCUGUGGCUAUACUGCC,0.04
16,GACAGAGCUCAACACAGCGUUGCAAAGUCGUUGUGGCUAGACUGCA,0.19
17,GACAUAGCUCAACACAGCGUGGCAAAGUGGCUGUGGCUUGACUGCC,0.2
18,GACAGAGCUCAACACAGCGUGGCAAACUGGCUGUGGCUAGACCGCC,0.11
19,GACAGAGCUCAACACAGCGUGGCAAAAUGGCUGUGGCUAGAGUUCC,0.07
20,GACAGAGCUCAACACAGCGUGCCAAAGUGGCUGUGGAUAGACUGCC,0.08
21,GACACAGCUCAGCACAGCGUGCCAAACUGGCUGUGACUAGACUGCC,0.05
22,GACAGAGCUCAACACACCGUGGCAAAGUGGCUGUGGUUAGACUGCC,0.74
23,GACAGAUCUCAACACAGCGUGGCAAAGUGGCUGUGGCUAUACUGCC,0.46

row,Variant,self-cleavage
1,GACAGAGCACAACACAGCGUGGCAAAGUGGCUGGGGCUAGACUUCC,0.04
2,GACAGAGCUCAACACAGCGUUGCAAAGUGGCUGUGUCUAGACUGCC,0.06
3,GACAGAUCUCAUCACAGCGUGGCAAAGUGGCUGUGACUAGACUGCC,0.02
4,GACAGAGCUCAACACAGCGUAGCAAAGGGGCUGUAGCUAGACUGCC,0.96
5,GACAGACCUCAACACAGCGUGGCAAAGUGCCUGUGGCUAGACUGCC,0.59
6,GACAGAUCUCAAUAUAGCGUGGCAAAGUGGCUGUGGCUAGACUGCC,0.53
7,GACAGAGCUCAACACAGCGUGGCAAAGUGGCAGGGGCUAGACUACC,0.09
8,GACAGAGCCCAACACAGCGUGGCAAAGUGGUUGUGGCUAGACUGCC,0.04
9,GACAGAGCUCAACACAGCGUGGCAAAAUGGCUGUGGCUAGUCUGCC,0.65
10,GCCCGAGCUCAAGACAGCGUAGCAAAGUGGCUGUUGCUAGACCGCC,0.02
11,GACAGAGCUCAACACAGCUAGACAAAGUGGCUGUGGCUAGACUGCC,0.44
12,GACAGAGCUCAACACAGCGUGGCAAAGUGGCGGUGGCUAGAUUGCC,0.38
13,GCCGGAGCUCAACACAGCGUGGCCAAGUGGCUGUGGCUAGACUGCC,0.02
14,GACAGAGCUCAACACAGCAUGGCAAAGUGGCUGUGGCUAGACCGCC,0.65
15,GACAGAGCUCAACACAUCGUGGCUAAGUGGCUGUGGCUAGACUGCC,0.12
16,GACAGAGCUCAACACAGCGUGGCAAAGUUGCCAUGGCUAGACUGCC,0.19
17,GACAGAGCUCAACACAGCAUGGCAAAGUGGCUGUGGCUAGACUGCA,0.63
18,GACAGAGCGUAACACAGCGUGGCAAAGUGGCUGUGGCUAACUGGCC,0.02
19,GACAGAGCUCAACACAGCGUGGCAAAGUAGCUUUGGCUAGACUACC,0.11
20,GCCGUAGCUUAACACAGCGUUGCAAAGUGGCUGUGGCUAGACUGCC,0.04
21,GACAUAGCUCAACACAGCGUGGCAAAGUGGCUGUGGUUAGACUGCC,0.35
22,GACAGAGCUCAACACAGCGUGCCAAAGUGUCUGUGGCUAGACUGCC,0.79
23,GACAGACCUCAACACAGCGUUGCAAAGUGGCUGUGGCUAGACUGAC,0.02

row,Variant,self-cleavage
1,GACAGAUCUGAACACAGCGUGGCAAAGUGUCUGUGGCUAGACUGCC,0.03
2,GCCCCAGCUCAACACAGCGUGGCAAAGUAGCGGUGGCUAGACUGCC,0.05
3,GACAGAGCUCAACACAGCAUGGCAAAGUGGCUCUGGCUAGACUGCC,0.03
4,GACAGAGCUCAACACAGCGUGGCAAAGUGGCUGUCGCUAGAAUGCC,0.06
5,GACAGAGCGCAACACAGCAUGGCUAAGUGGCUGUGGCUAGAAUGCC,0.09
6,GACAUAGCUCAACACAGCUAGGCAAAGGGGCUGUGGCUAGACCGCC,0.02
7,GACAGAGCACUACACAGCGUGGCAAAGGGGCUGGGGCUAGUCUACC,0.01
8,GACAGAGCGCAACACAGCGUGGCAAAGUGGCUGUGGCGAGACUGCC,0.23
9,GACAGAGCCCAAGGCAGCGCGGCAAAGUGGCUGUGGCUAUACUGCC,0.03
10,GACAGAGCUCAACACAGCGGGGCAAAGUGGCUGUGACUAGACUGCC,0.19
11,GACAGAGCUCAACACAGCGCGGCAAAGUGCCUGGCGCUAGACUGAC,0.34
12,GACAGAUCCUAACACAGCGUGGCAAAGUGGCUGUGGCUAGACUGCC,0.03
13,GACAGAGCUCAACACAGCCGGGCAAAGUGGCUGUGGCUAGACUGCC,0.04
14,GACAUAGCUCAGCACAGCGCGGCAAAGUGGAUGUGGCUAGACUGGG,0.08
15,GACAGAGCUCAACACAGCGUGGCAAAGUGGCAGUGGCUAGACUGCU,0.04
16,GACACAGCUAAACACAGCGUGGCAAAGUGGCUGAGGCCAGACUGCC,0
17,GACAGACCCCAUUACAGCGUGGCCAAGUGGCUGUGGCUAGAAUGCC,0.06
18,GACAGAGCCCAAAACAGCGUGGCAAAGUGGCUGUGGCUAGACUUCC,0
19,GCCGGAGCUCAACACAGCUUGGCCAAGAGGCUGUGGCUAAACUGCC,0.01
20,GACAGAGCCCAACUCAGCGUGGCAAAGUGGCUGUGGCUAAACUGCC,0.04
21,GACAGAGCUCAACACAGCAUGGCAAAGUGGCUGUGGCUAGUCUGGC,1.47
22,GACAUAGCUUAACACAGCGUGGCAAAGUGGCUGUGGCUAGACUGCC,0.07
23,GACAGAGCACAACACAGGGUGGCAAAGUGGCUGUGGCUACACUGCC,0.03

row,Variant,self-cleavage
1,GACAGAGCUCAACACAGCGAGGCAAAGUGGCUGUGCCUAGACUGCC,0.04
2,GACAUAGCUCAACACAGCGUGCCAAAGUGUCUGUCGCUGGACUGCC,0.09
3,GACAGAUCUCAACACAGCGUGGCAAAGUGGCUGUUGCUAGACUGCC,0.91
4,GACAGACCUCAACACAGCGUGGAAAAUUGGCUGUGGCUAUACUGCC,0.25
5,GACAUAGCUCAACACAGCGUGGCAAAGUGGCUGUGGCUAGACUGGC,0.4
6,GACAGAGCUCAACACAGCGUGGCAAAGUGGCUGUUGCUAGAGUGCC,0.22
7,GACACAGCUAAACACAGCGUGGCAAGGUGGCUGUGGCUAGACGGCC,0
8,GACAGAGCUCAACACAGCGUGGCAAAGAGGCUGUGGCUGGACUGCC,0.41
9,GACAGAUCUCAACACAGGGUGGCAAAGUCUCUGUGGCUAGACUGCC,0.06
10,GACAGAGCGCAACACAGCGUGGCAAAGUGGCUCUGGCUAGACUGCC,0.04
11,GCCGAGGGUCAACGCAGCGGGGCAAAGUGGCUGUGGCUAGACUGCC,0.02
12,GACAGAGCUCAACACAACGUGGCAAAGUAGCUGUGGCUAGACUGCC,0.36
13,GACAGAGCUCAACACAGCAUGGCAAAGUGGCUGUGACUAGACUGCC,0.46
14,GCCGGAGCUCAACACAGCGUGGCACAGUGGCUGUGGCGAGACUGCC,0.01
15,GACAGAGCUCAACACAGCGUGGCAAAGUGGCUGUGCCUAGACUUCC,0.19
16,GACAGAGCUCAACACAGCGUGGCAAAGUGGCUGUGUCUUGAGUGCC,0.05
17,GACAGAGCUCAACACAGCAUGGCACAGUGCCAGUGGCCAGACUGCC,0.16
18,GACAGAACUCCACACAGCGUGGCAAAGUGGCUGCGGCUAGACUGCC,0.04
19,GACAGAUCUCAACACAGCGUGGCAAAGUGGCUGUGGCUAAACUACC,0.12
20,GACAGAGCUCAACACAGCGUGGCAAAGUGUCUGUGGCCAGACUGCC,0.15
